± gives the standard deviation. This is a selection; strong and weak results do not stand in their true shares.
test system: MIWI (PIWIL1) piRISC loaded with piRNA #1 (30 nt); assay: pre-steady-state target cleavage rate (min^-1); MIWI and MILI are mouse PIWI proteins and EfPiwi is from a freshwater sponge; tags in brackets are library labels; higher = faster piRNA-guided slicing of the target; details: guide: piRNA #1 5'p-UGAGGUAGUAGGUUGUAUAGUAUCCAGAGG; auxiliary factor: 500 nM mouse GTSF1
In short: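 A burst-and-steady-state fit was used to obtain the pre-steady-state cleavage rate. The input data were sequencing reads of uncleaved targets, normalised to depth and to weakly complementary targets, from a […] transcribed, DNA-blocked target RNA library mixed with 1 nM active affinity-purified piRISC holding one synthetic guide, with or without 500 nM GTSF1 partner protein, in HEPES–potassium acetate buffer at 33 °C for 0–8 or 0–960 min. Three trials were pooled and k3 was capped at 0.0001 min^-1.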
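Also: 1 nM active piRISC with 0.1 nM target library at 33 °C single turnover.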

Going from GGACUGGAUACUAUACAACCUACUACGAGA to GGAGACCUAACUAUACAACCUCCUACCUCA, the “pre-steady-state target cleavage rate” value rises from 0.00844 ± 0.0069 to 0.582 ± 0.049.

Going from GGAGACCUAAGUUUACAACCUACUACCUCA to GCUCUGGAUACUUUACAACCUACUACGUCA, the “pre-steady-state target cleavage rate” value rises from 0.00564 ± 0.0037 to 0.886 ± 0.062.

First: GGUCUGGAUACUCAUACAACCUACUACCUCA
Second: GGAGACCUAACUAUAGAAGCUACUACCUCA
The “pre-steady-state target cleavage rate” value of the first is higher: 1.42 ± 0.089 for the first, 0.226 ± 0.033 for the second.

First: GGAGUGGAUAGUAUUCAACCUACUACCUCA
Second: GCUCUGGAUACUAUACAACCAUGUACCUCA
The “pre-steady-state target cleavage rate” value of the first is higher: 0.584 ± 0.064 for the first, 0.00914 ± 0.0029 for the second.

Going from GGUCUGGAUACUAUCAACCUACUACCUCA to GGAGACCUAUGAUAUGUUCCUGCUACCUCA, the “pre-steady-state target cleavage rate” value falls from 1.68 ± 0.12 to under 0.0001.

Compared with GGAGACCUAAGUAUACAACCUACUACCACA, GGAGACCAUACAAUACAACCUACUUCCUCA is higher in “pre-steady-state target cleavage rate” value: 0.17 ± 0.05 for the first, 0.277 ± 0.05 for the second.

GGAGACGAUACUAUUCAACCUACAACCUCA and GGAGACGAUACUAUUCAACCUACUACCUGA are within error of each other in “pre-steady-state target cleavage rate” value: 0.509 ± 0.048 for the first, 0.528 ± 0.072 for the second.

First: CCACUGGAUACUAUACAACCUACUACCUCA
Second: GGAGACCUAACUAAACAACGUACUACCUCA
The “pre-steady-state target cleavage rate” value of the first is higher: 1.8 ± 0.11 for the first, 0.00492 ± 0.0039 for the second.

Going from GGAGACCAUACUAUACAACCUACUUCCUCA to GGAGACCUAUCAUACAACCUACUACCUCA, the “pre-steady-state target cleavage rate” value falls from 0.666 ± 0.054 to 0.233 ± 0.065.

GGAGACCUAUGUAUACAACCUACUACCAUCA and GGAGAGGAUACUAUACAUCCAACUACCUCA are within error of each other in “pre-steady-state target cleavage rate” value: 0.0683 ± 0.0095 for the first, 0.0804 ± 0.011 for the second.

First: GCUCUGGAUACUAUAGAACCAACUACCUCA
Second: GGACUGGAUACUCUACAACCUACUACCUCA
The “pre-steady-state target cleavage rate” value of the first is lower: 0.0216 ± 0.0031 for the first, 1.57 ± 0.11 for the second.

First: GGAGACCAUACAAAACAACCUACUACCUCA
Second: GCACUGGAUACUAUACAACCUACAACCUCA
The “pre-steady-state target cleavage rate” value of the first is lower: 0.154 ± 0.051 for the first, 0.591 ± 0.049 for the second.

Going from GGAGACCUAUCAAUACAACCUUCUACCUCA to GGACUGGAUACUAUUCAACCUUCUACCUCA, the “pre-steady-state target cleavage rate” value rises from 0.00538 ± 0.0027 to 0.578 ± 0.04.

Going from GGAGACCUAUGUUUACAACCUAGUACCUCA to GGAGACCUUACUAUAGAUCCUACUACCUCA, the “pre-steady-state target cleavage rate” value rises from 0.00374 ± 0.0022 to 0.495 ± 0.043.

Compared with GGUCUGGAUACUAUACAUCCAACUACCUCA, GGAGUGCAUACAAUACAACCUACUACCUCA is higher in “pre-steady-state target cleavage rate” value: 0.0978 ± 0.016 for the first, 1.11 ± 0.092 for the second.

Going from GGAGACCUAACUAAACAACCUACUAGCUCA to CCUCUGGAUACAUAACAACCUACUACCUCA, the “pre-steady-state target cleavage rate” value rises from 0.0502 ± 0.019 to 1.24 ± 0.13.

First: GGAGUGGAAACUAUACAAGCUACUACCUCA
Second: GCUCUGGAGACUAUACAACCUACUACCUCA
The “pre-steady-state target cleavage rate” value of the first is lower: 0.882 ± 0.046 for the first, 1.99 ± 0.17 for the second.

Compared with GGACUGCAUACUUUACAACCUACUACCUCA, GGAGACCUAUGUAUACAAGGUACUACCUCA is lower in “pre-steady-state target cleavage rate” value: 1.27 ± 0.12 for the first, 0.00401 ± 0.0024 for the second.

GGAGAGGAUAGUAUACAACCUACAACCUCA and GCUCUGGAUACUAUAGAACCUACUACCACA are within error of each other in “pre-steady-state target cleavage rate” value: 0.213 ± 0.03 for the first, 0.205 ± 0.026 for the second.

Going from GGAGACGAUACUAUACACCUACUACCUCA to CCUCUCCUUACUAUACAACCUACUACCUCA, the “pre-steady-state target cleavage rate” value rises from 0.288 ± 0.027 to 1.96 ± 0.13.

From the supplement of paper PMC10338343
